The text below walks through data of PubChem BioAssay AID1963576 (National Center for Advancing Translational Sciences (NCATS), 2024).

Molecules are shown by their SMILES. The whole screen tested about 46,000 compounds, of which about 60 (0.1%) were called active. Another 3% or so got no clear call; they are omitted. Calls follow the shape of the dose curve; as a rule, active = well fitted inhibition curve with a large enough effect; inconclusive = small, poorly fitted or top-dose-only effect; inactive = no such curve, though single readings can be large or run the other way. The list shows a part of the results.

The assay can be described thus: Primary qHTS assay for Inhibitors of ovarian cancer metastasis using an organotypic tumor microenvironment (TME) model. Also: nearly all actives have a fitted effect of over 65% in size.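 As to activity change, negative = inhibition: plate controls were DMSO wells for no effect and tomatine positive control wells for full effect.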 As to conditions: SKOV3ip1-GFP adhesion/invasion on 3D omental model, fluorescence; series mostly up to 45.8 µM; activity change, negative = inhibition: at the top concentration. The method in brief:
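A 3D layer of primary human omental fibroblasts, mesothelial cells, fibronectin and collagen I, grown 48 hr, received SKOV3ip1-GFP cells in serum-free medium plus compounds at 0.36-46 umol/L. After 2 hr RT and 16 hr 37 C, fixed adherent GFP cells were counted; normalized to DMSO and tomatine.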
A general note: qHTS replaces the single test concentration by a dilution series.
Turning to `O=C(Nc1cc(Cl)cc(Cl)c1)c1cc(S(=O)(=O)N2CCc3ccccc3C2)ccc1F`, the “activity change, negative = inhibition” value is inactive: 2.78%.

Regarding `CCOC(=O)c1cccc(NC(=O)C2CCCN(c3nnc(C)c4c(C)n(-c5ccccc5)nc34)C2)c1` (configuration not stated), the “activity change, negative = inhibition” value is inactive: 15.7%.

Regarding `COc1ccc(NC(=O)c2cc3cc(C)ccc3n2C)cc1`, the “activity change, negative = inhibition” value was inactive: 1.93%.

Turning to `Cn1c(=O)c(=O)n(C)c2cc(N3CCOCC3)c(NS(=O)(=O)c3ccc(F)c(Cl)c3)cc21`, the “activity change, negative = inhibition” value was inactive: 6.69%.

Take `Cc1ccc(-c2nnc3ccccc3c2C(=O)Nc2cccc(Cl)c2)cc1`: the “activity change, negative = inhibition” value is inactive: 0.327%.

For `CC(C)(C)OC(=O)N1CCC(c2c(C(=O)NCc3ccc4c(c3)OCO4)cnn2-c2ccccc2Cl)CC1`, the outcome was inactive.

Take `COc1cc(NC(=O)NCCn2nnc3cc(S(=O)(=O)N(C)C)ccc32)cc(OC)c1`: the compound was classed as inactive.

Consider `Cc1ccc(Cl)cc1NC(=O)c1ccc2snnc2c1`, for which the “activity change, negative = inhibition” value is inactive: -0.478%.

`Cc1ccc(Cn2c(C(=O)O)c(CNCc3cccs3)c3ccc(C)cc32)cc1`: the compound was called inactive.

In the case of `COc1ccc(NC(=O)c2ccc3c(c2)nnn3C2CCCC2)cc1Cl`, the “activity change, negative = inhibition” value was inactive: -0.71%.

Turning to `COc1ccc(C(=O)Nc2nnc(S(=O)(=O)N(CC(C)C)c3ccccc3)s2)cc1`, the “activity change, negative = inhibition” value is inactive: -1.17%.

As for `CNS(=O)(=O)c1cn(CC(=O)Nc2ccc(C)c(N(C)C)c2)cc1S(=O)(=O)NC`, the “activity change, negative = inhibition” value is inactive: 12.3%.

Consider `CC1=C(C(N)=O)C(c2ccc(F)cc2)n2nc(-c3ccc(N(C)C)cc3)nc2N1` (configuration not stated), for which the “activity change, negative = inhibition” value is inactive: -15.1%.

As to `CCN(C(=O)c1cc(S(=O)(=O)N2CCc3ccccc32)cn1C)c1cccc(C)c1`, the “activity change, negative = inhibition” value was inactive: 9.68%.

On to `Cc1ccc(Cl)cc1N1CCN(C(=O)c2cccn2-c2nnc(N3CCCC3)s2)CC1`, for which the “activity change, negative = inhibition” value was inactive: 5.87%.

On to `Cc1ccc(-c2nn(CC(=O)NC3CCCCC3)c3c2cnc2ccccc23)cc1`, for which the “activity change, negative = inhibition” value is inactive: 3.13%.

With `Cc1ccc2c(=O)c(C(=O)c3ccc(F)cc3)cn(CC(=O)NCc3ccccc3Cl)c2n1`, the “activity change, negative = inhibition” value was inactive: 0.406%.

As to `CCCCCc1ccc(-c2ccc(C(=O)Oc3ccc(C(=O)OC)cc3)cc2)nc1`, the “activity change, negative = inhibition” value was inactive: 5.04%.

On to `Cc1ccc(S(=O)(=O)C2(C(=O)Nc3ccc(C(C)C)cc3)CC2)cc1`, for which the compound was called inactive.

`COc1ccccc1CNC(=O)c1ccc(CSc2nc3ccncc3n2Cc2ccccc2C)cc1`: the “activity change, negative = inhibition” value was inactive: -4.11%.

Consider `COc1ccc(CNc2nc(-c3ccc(Cl)cc3)nn2C(=O)c2ccccc2)cc1`, for which the compound was called inactive.

As for `CC(C)c1ccc(NC(=O)C2Cc3ccccc3N2C(=O)c2ccccc2)cc1` (configuration not stated), the “activity change, negative = inhibition” value was inactive: -0.926%.

With `Cc1nc(-c2ccc(S(=O)(=O)N(C)Cc3ccccc3)cc2)co1`, the “activity change, negative = inhibition” value is inactive: -1.08%.

In the case of `Cc1cc(C)cc(N2C(=O)CS(=O)(=O)C23C(=O)N(C)c2ccccc23)c1` (configuration not stated), the “activity change, negative = inhibition” value was inactive: -9.2%.

Consider `Cc1ccc(-n2ncc(C(=O)N3CCN(c4ncccn4)CC3)c2C2CCN(C(=O)OC(C)(C)C)CC2)cc1`, for which the “activity change, negative = inhibition” value is inactive: -1.55%.

Turning to `CCOc1ccc(-n2cc(-c3ccccc3)c3c(NCc4ccc(F)cc4)ncnc32)cc1`, the “activity change, negative = inhibition” value is inactive: 6.44%.

For `CCCN(CCC)S(=O)(=O)c1ccc(N2CCCCS2(=O)=O)cc1`, the “activity change, negative = inhibition” value was inactive: 2.3%.

With `CCOC(=O)Cn1nc(C)c(NC(=O)COc2ccc(C)c(C)c2)c1C`, the compound was called inactive.

On to `COc1ccc(-c2cc(C(F)(F)F)nc(SCCC(=O)Nc3ccc(O)cc3)n2)cc1`, for which the compound was called inactive.

Turning to `CCn1c2ccccc2c2nnc(N3CCN(c4ccc(OC)cc4)CC3)nc21`, the “activity change, negative = inhibition” value was inactive: -4.59%.

With `Cc1ccc(NC(=O)C2CCN(c3nc4ccccc4nc3C(F)(F)F)CC2)cc1C`, the compound was classed as inactive.

Regarding `CCN(CC)C(=O)CSc1cn(CC(=O)N2CCCCCC2)c2ccccc12`, the “activity change, negative = inhibition” value was inactive: -0.245%.

As to `Cc1ccc(C)c(Nc2ncnc3c2cnn3-c2ccc(F)cc2)c1`, the “activity change, negative = inhibition” value was inactive: -6.15%.

Turning to `COc1ccc(C)cc1NS(=O)(=O)c1ccc(-c2cnc(C3CC3)o2)cc1`, the compound was called inactive.

`Cc1nnc(N2CCC(C(=O)N3CCCCC3)CC2)c2nn(-c3ccccc3)c(C)c12`: the “activity change, negative = inhibition” value was inactive: -9.01%.

As for `COc1ccc(CNS(=O)(=O)c2ccc3c(c2)NC(=O)C(C)C(=O)N3)cc1` (configuration not stated), the “activity change, negative = inhibition” value was inactive: -0.525%.

`Cc1ccc(C)c(S(=O)(=O)Nc2ccc3c(c2)CCCN3C(=O)c2cccs2)c1`: the “activity change, negative = inhibition” value was inactive: -4.31%.

Consider `Cc1ccc(C)c(NC(=O)CSc2ncc3c(n2)-c2ccccc2N(Cc2ccccc2C)S3(=O)=O)c1`, for which the “activity change, negative = inhibition” value is inactive: 6.91%.

As for `O=C(Cn1cc(S(=O)(=O)c2ccc(Cl)cc2)c(=O)c2ccccc21)Nc1ccc2c(c1)OCO2`, the compound was called inactive.

For `COc1ccc(/C=C/c2nc(C#N)c(N3CCCCCC3)o2)cc1OC`, the “activity change, negative = inhibition” value was inactive: 6.87%.

Take `O=S(=O)(N=Cc1c(O)ccc2ccccc12)c1cccs1`: the “activity change, negative = inhibition” value was inactive: 23.3%.

`Fc1ccc([C@@H]2Nc3ccccc3[C@@H]3C=CC[C@@H]32)cc1`: the “activity change, negative = inhibition” value was inactive: -2.43%.

Take `COc1ccc(CCN2C(=O)N(c3ccc(F)cc3)C(=O)C2CC(=O)Nc2ccccc2)cc1OC` (configuration not stated): the result was inactive.

Turning to `CCCN(C(=O)c1cc2c(=O)n(CC)c3ccccc3c2s1)c1ccccc1F`, the compound was classed as inactive.

On to `CCCc1c(C(=O)OCC)nnc2c(-c3ccccc3)c(C)nn12`, for which the compound was called inactive.

Consider `COc1cc(NC(=O)Cn2c(=O)n(Cc3ccccc3Cl)c(=O)c3cc(OC)c(OC)cc32)cc(OC)c1`, for which the result was inactive.

Regarding `COc1ccc(CNc2n[nH]c(-c3ccco3)n2)cc1OC`, the “activity change, negative = inhibition” value was inactive: 4.61%.
